# In the supplement of paper PMC8728848:
# This is one part of the list.
# B1: CLEC-6 (Homo sapiens), Q8WXI8 (protein)
# chain: MGLEKPQSKLEGGMHPQLIPSVIAVVFILLLSVCFIASCLVTHHNFSRCKRGTGVHKLEHHAKLKCIKEKSELKSAEGSTWNCCPIDWRAFQSNCYFPLTDNKTWAESERNCSGMGAHLMTISTEAEQNFIIQFLDRRLSYFLGLRDENAKGQWRWVDQTPFNPRRVFWHKNEPDNSQGENCVVLVYNQDKWAWNDVPCNFEASRICKIPGTTLN
# Legend:
# Assay in all cases: glycan array binding signal (z-score within array); higher = stronger binding
# Conditions in all cases: glycan notation: IUPAC condensed, linker removed
# [1] = molecular target: Man(a1-2)Man(a1-2)Man(a1-3)Man
# Method in brief: (§1)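 The binding signal is a Z-score computed within each array and averaged over linkers. Arrays of the same protein sequence at different concentrations or buffers were also averaged together. Data originate from 3228 arrays in the Consortium for Functional Glycomics database, kept only where the protein sequence was available.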
# [2] = molecular target: Man(a1-2)Man(a1-2)Man(a1-6)[Man(a1-3)]Man
# Method in brief: as §1
# [3] = molecular target: Man(a1-2)Man(a1-3)Man
# Method in brief: as §1
# [4] = molecular target: Man(a1-2)Man(a1-3)[Man(a1-2)Man(a1-6)]Man
# Method in brief: as §1
# [5] = molecular target: Man(a1-2)Man(a1-3)[Man(a1-2)Man(a1-6)]Man(a1-6)[Man(a1-2)Man(a1-2)Man(a1-3)]Man(b1-4)GlcNAc(b1-4)GlcNAc
# Method in brief: as §1
# [6] = molecular target: Man(a1-2)Man(a1-3)[Man(a1-6)]Man(a1-6)[Man(a1-2)Man(a1-3)]Man(b1-4)GlcNAc(b1-4)GlcNAc
# Method in brief: as §1
# [7] = molecular target: Man(a1-2)Man(a1-6)[Man(a1-3)]Man(a1-6)[Man(a1-2)Man(a1-2)Man(a1-3)]Man(b1-4)GlcNAc(b1-4)GlcNAc
# Method in brief: as §1
# [8] = molecular target: Man(a1-3)[Man(a1-6)]Man
# Method in brief: as §1
# [9] = molecular target: Man(a1-3)[Man(a1-6)]Man(a1-6)[Man(a1-2)Man(a1-3)]Man(b1-4)GlcNAc(b1-4)GlcNAc
# Method in brief: as §1
# [10] = molecular target: Man(a1-3)[Man(a1-6)]Man(a1-6)[Man(a1-3)]Man(b1-4)GlcNAc(b1-4)GlcNAc
# Method in brief: as §1
# [11] = molecular target: Man(a1-3)[Man(a1-6)]Man(b1-4)GlcNAc(b1-4)GlcNAc
# Method in brief: as §1
# [12] = molecular target: Man(b1-4)GlcNAc
# Method in brief: as §1
# [13] = molecular target: Neu5Ac(a2-3)Gal
# Method in brief: as §1
# [14] = molecular target: Neu5Ac(a2-3)Gal(b1-3)GalNAc
# Method in brief: as §1
# [15] = molecular target: Neu5Ac(a2-3)Gal(b1-3)GalNAc(b1-3)Gal(a1-4)Gal(b1-4)Glc
# Method in brief: as §1
# [16] = molecular target: Neu5Ac(a2-3)Gal(b1-3)GalNAc(b1-3)Gal(b1-4)GlcNAc
# Method in brief: as §1
# [17] = molecular target: Neu5Ac(a2-3)Gal(b1-3)GalNAc(b1-4)[Neu5Ac(a2-3)]Gal(b1-4)Glc
# Method in brief: as §1
# [18] = molecular target: Neu5Ac(a2-3)Gal(b1-3)GalNAc6S
# Method in brief: as §1
# [19] = molecular target: Neu5Ac(a2-3)Gal(b1-3)GlcNAc
# Method in brief: as §1
# [20] = molecular target: Neu5Ac(a2-3)Gal(b1-3)GlcNAc6S
# Method in brief: as §1
# [21] = molecular target: Neu5Ac(a2-3)Gal(b1-3)[Fuc(a1-4)]GlcNAc
# Method in brief: as §1
# [22] = molecular target: Neu5Ac(a2-3)Gal(b1-3)[Fuc(a1-4)]GlcNAc(b1-3)Gal(b1-4)[Fuc(a1-3)]GlcNAc
# Method in brief: as §1
# [23] = molecular target: Neu5Ac(a2-3)Gal(b1-3)[Neu5Ac(a2-3)Gal(b1-4)]GlcNAc
# Method in brief: as §1
# [24] = molecular target: Neu5Ac(a2-3)Gal(b1-3)[Neu5Ac(a2-6)]GalNAc
# Method in brief: as §1
# [25] = molecular target: Neu5Ac(a2-3)Gal(b1-4)Glc
# Method in brief: as §1
# [26] = molecular target: Neu5Ac(a2-3)Gal(b1-4)GlcNAc
# Method in brief: as §1
# [27] = molecular target: Neu5Ac(a2-3)Gal(b1-4)GlcNAc(b1-3)Gal(b1-4)GlcNAc
# Method in brief: as §1
# [28] = molecular target: Neu5Ac(a2-3)Gal(b1-4)GlcNAc(b1-3)Gal(b1-4)GlcNAc(b1-3)Gal(b1-4)GlcNAc
# Method in brief: as §1
# [29] = molecular target: Neu5Ac(a2-3)Gal(b1-4)GlcNAc(b1-3)Gal(b1-4)[Fuc(a1-3)]GlcNAc
# Method in brief: as §1
# [30] = molecular target: Neu5Ac(a2-3)Gal(b1-4)GlcNAc6S
# Method in brief: as §1
# [31] = molecular target: Neu5Ac(a2-3)Gal(b1-4)[Fuc(a1-3)]GlcNAc
# Method in brief: as §1
# [32] = molecular target: Neu5Ac(a2-3)Gal(b1-4)[Fuc(a1-3)]GlcNAc(b1-3)Gal
# Method in brief: as §1
# [33] = molecular target: Neu5Ac(a2-3)Gal(b1-4)[Fuc(a1-3)]GlcNAc(b1-3)Gal(b1-4)GlcNAc
# Method in brief: as §1
# [34] = molecular target: Neu5Ac(a2-3)Gal(b1-4)[Fuc(a1-3)]GlcNAc(b1-3)Gal(b1-4)[Fuc(a1-3)]GlcNAc(b1-3)Gal(b1-4)[Fuc(a1-3)]GlcNAc
# Method in brief: as §1
# [35] = molecular target: Neu5Ac(a2-3)Gal(b1-4)[Fuc(a1-3)]GlcNAc6S
# Method in brief: as §1
# [36] = molecular target: Neu5Ac(a2-3)Gal6S(b1-4)GlcNAc
# Method in brief: as §1
# [37] = molecular target: Neu5Ac(a2-3)Gal6S(b1-4)[Fuc(a1-3)]GlcNAc
# Method in brief: as §1
# [38] = molecular target: Neu5Ac(a2-3)GalNAc
# Method in brief: as §1
# [39] = molecular target: Neu5Ac(a2-3)GalNAc(b1-4)GlcNAc
# Method in brief: as §1
# [40] = molecular target: Neu5Ac(a2-3)[GalNAc(b1-4)]Gal(b1-4)Glc
# Method in brief: as §1
# [41] = molecular target: Neu5Ac(a2-3)[GalNAc(b1-4)]Gal(b1-4)GlcNAc
# Method in brief: as §1
# [42] = molecular target: Neu5Ac(a2-3)[Neu5Ac(a2-6)]GalNAc
# Method in brief: as §1
# [43] = molecular target: Neu5Ac(a2-6)Gal
# Method in brief: as §1
# [44] = molecular target: Neu5Ac(a2-6)Gal(b1-4)Glc
# Method in brief: as §1
# [45] = molecular target: Neu5Ac(a2-6)Gal(b1-4)GlcNAc
# Method in brief: as §1
# [46] = molecular target: Neu5Ac(a2-6)Gal(b1-4)GlcNAc(b1-2)Man(a1-3)[Neu5Ac(a2-6)Gal(b1-4)GlcNAc(b1-2)Man(a1-6)]Man(b1-4)GlcNAc(b1-4)GlcNAc
# Method in brief: as §1
# [47] = molecular target: Neu5Ac(a2-6)Gal(b1-4)GlcNAc(b1-3)Gal(b1-4)GlcNAc
# Method in brief: as §1
# [48] = molecular target: Neu5Ac(a2-6)Gal(b1-4)GlcNAc(b1-3)Gal(b1-4)[Fuc(a1-3)]GlcNAc(b1-3)Gal(b1-4)[Fuc(a1-3)]GlcNAc
# Method in brief: as §1
# [49] = molecular target: Neu5Ac(a2-6)Gal(b1-4)GlcNAc6S
# Method in brief: as §1
# [50] = molecular target: Neu5Ac(a2-6)GalNAc
# Method in brief: as §1
# [51] = molecular target: Neu5Ac(a2-6)GalNAc(b1-4)GlcNAc
# Method in brief: as §1
# [52] = molecular target: Neu5Ac(a2-8)Neu5Ac
# Method in brief: as §1
# [53] = molecular target: Neu5Ac(a2-8)Neu5Ac(a2-3)Gal(b1-4)Glc
# Method in brief: as §1
# [54] = molecular target: Neu5Ac(a2-8)Neu5Ac(a2-3)[GalNAc(b1-4)]Gal(b1-4)Glc
# Method in brief: as §1
# [55] = molecular target: Neu5Ac(a2-8)Neu5Ac(a2-8)Neu5Ac
# Method in brief: as §1
# [56] = molecular target: Neu5Ac(a2-8)Neu5Ac(a2-8)Neu5Ac(a2-3)Gal(b1-4)Glc
# Method in brief: as §1
# [57] = molecular target: Neu5Ac(a2-8)Neu5Ac(a2-8)Neu5Ac(a2-3)[GalNAc(b1-4)]Gal(b1-4)Glc
# Method in brief: as §1
# [58] = molecular target: Neu5Ac(a2-8)Neu5Ac(a2-8)Neu5Ac(a2-8)Neu5Ac(a2-3)[GalNAc(b1-4)]Gal(b1-4)Glc
# Method in brief: as §1
# [59] = molecular target: Neu5Ac(b1-6)GalNAc
# Method in brief: as §1
# [60] = molecular target: Neu5Ac(b2-6)Gal(b1-4)GlcNAc
# Method in brief: as §1
# [61] = molecular target: Neu5Ac9Ac(a2-6)Gal(b1-4)GlcNAc
# Method in brief: as §1
# [62] = molecular target: Neu5Gc(a2-3)Gal(b1-3)GlcNAc
# Method in brief: as §1
# [63] = molecular target: Neu5Gc(a2-3)Gal(b1-3)[Fuc(a1-4)]GlcNAc
# Method in brief: as §1
# [64] = molecular target: Neu5Gc(a2-3)Gal(b1-4)Glc
# Method in brief: as §1
# [65] = molecular target: Neu5Gc(a2-3)Gal(b1-4)GlcNAc
# Method in brief: as §1
# [66] = molecular target: Neu5Gc(a2-3)Gal(b1-4)[Fuc(a1-3)]GlcNAc
# Method in brief: as §1
# [67] = molecular target: Neu5Gc(a2-6)Gal(b1-4)GlcNAc
# Method in brief: as §1
# [68] = molecular target: Neu5Gc(a2-6)GalNAc
# Method in brief: as §1
binder,measurement,setting,value
B1,glycan array binding signal (z-score),[1],1.94
same,glycan array binding signal (z-score),[2],-0.405
same,glycan array binding signal (z-score),[3],-0.084
same,glycan array binding signal (z-score),[4],-0.217
same,glycan array binding signal (z-score),[5],-0.213
same,glycan array binding signal (z-score),[6],-0.286
same,glycan array binding signal (z-score),[7],-0.155
same,glycan array binding signal (z-score),[8],-0.366
same,glycan array binding signal (z-score),[9],-0.185
same,glycan array binding signal (z-score),[10],-0.02
same,glycan array binding signal (z-score),[11],-0.199
same,glycan array binding signal (z-score),[12],-0.211
same,glycan array binding signal (z-score),[13],-0.212
same,glycan array binding signal (z-score),[14],0.005
same,glycan array binding signal (z-score),[15],-0.144
same,glycan array binding signal (z-score),[16],-0.257
same,glycan array binding signal (z-score),[17],-0.302
same,glycan array binding signal (z-score),[18],-0.077
same,glycan array binding signal (z-score),[19],-0.033
same,glycan array binding signal (z-score),[20],-0.23
same,glycan array binding signal (z-score),[21],-0.133
same,glycan array binding signal (z-score),[22],-0.255
same,glycan array binding signal (z-score),[23],-0.008
same,glycan array binding signal (z-score),[24],0.051
same,glycan array binding signal (z-score),[25],0.296
same,glycan array binding signal (z-score),[26],-0.213
same,glycan array binding signal (z-score),[27],-0.185
same,glycan array binding signal (z-score),[28],-0.122
same,glycan array binding signal (z-score),[29],-0.35
same,glycan array binding signal (z-score),[30],-0.144
same,glycan array binding signal (z-score),[31],-0.341
same,glycan array binding signal (z-score),[32],-0.265
same,glycan array binding signal (z-score),[33],-0.109
same,glycan array binding signal (z-score),[34],-0.153
same,glycan array binding signal (z-score),[35],-0.308
same,glycan array binding signal (z-score),[36],-0.142
same,glycan array binding signal (z-score),[37],-0.143
same,glycan array binding signal (z-score),[38],-0.207
same,glycan array binding signal (z-score),[39],-0.104
same,glycan array binding signal (z-score),[40],-0.359
same,glycan array binding signal (z-score),[41],-0.199
same,glycan array binding signal (z-score),[42],-0.182
same,glycan array binding signal (z-score),[43],0.085
same,glycan array binding signal (z-score),[44],-0.183
same,glycan array binding signal (z-score),[45],-0.221
same,glycan array binding signal (z-score),[46],0.066
same,glycan array binding signal (z-score),[47],-0.227
same,glycan array binding signal (z-score),[48],1.59
same,glycan array binding signal (z-score),[49],0.02
same,glycan array binding signal (z-score),[50],-0.305
same,glycan array binding signal (z-score),[51],-0.108
same,glycan array binding signal (z-score),[52],-0.157
same,glycan array binding signal (z-score),[53],0.063
same,glycan array binding signal (z-score),[54],-0.295
same,glycan array binding signal (z-score),[55],-0.085
same,glycan array binding signal (z-score),[56],-0.163
same,glycan array binding signal (z-score),[57],-0.333
same,glycan array binding signal (z-score),[58],-0.363
same,glycan array binding signal (z-score),[59],-0.401
same,glycan array binding signal (z-score),[60],-0.352
same,glycan array binding signal (z-score),[61],-0.166
same,glycan array binding signal (z-score),[62],-0.288
same,glycan array binding signal (z-score),[63],-0.261
same,glycan array binding signal (z-score),[64],-0.164
same,glycan array binding signal (z-score),[65],-0.141
same,glycan array binding signal (z-score),[66],-0.188
same,glycan array binding signal (z-score),[67],-0.19
same,glycan array binding signal (z-score),[68],0.134
